Measured values taken from PubChem BioAssay AID588342 (National Center for Advancing Translational Sciences (NCATS), 2011).
The campaign covered roughly 360,000 compounds. About 25,000 (6.9%) were called active. Inconclusive results, whose numbers are uncertain, are shown with a selection of clear calls. Calls come from the whole dose curve; as a rule, active = well fitted inhibition curve with a large enough effect; inconclusive = small, poorly fitted or top-dose-only effect; inactive = flat fitted curve, though single readings scatter. A potency beside an inconclusive call is a rough fit, not a confirmed value.

target: Luciferin 4-monooxygenase (Photinus pyralis) (UniProt P08659); test: qHTS profiling assay for firefly luciferase inhibitor/activator using purifed enzyme and Km concentrations of substrates (counterscreen for miR-21 project); conditions: purified FLuc, luminescence inhibition; series mostly up to 57.5 µM; activity change, negative = inhibition: at the top concentration; note: nearly all actives have a fitted effect of over 55% in size;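 for activity change, negative = inhibition: plate controls were vehicle for no effect and reference inhibitor for full effect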
UniProt P08659, sequence (P08659 whole entry, looked up): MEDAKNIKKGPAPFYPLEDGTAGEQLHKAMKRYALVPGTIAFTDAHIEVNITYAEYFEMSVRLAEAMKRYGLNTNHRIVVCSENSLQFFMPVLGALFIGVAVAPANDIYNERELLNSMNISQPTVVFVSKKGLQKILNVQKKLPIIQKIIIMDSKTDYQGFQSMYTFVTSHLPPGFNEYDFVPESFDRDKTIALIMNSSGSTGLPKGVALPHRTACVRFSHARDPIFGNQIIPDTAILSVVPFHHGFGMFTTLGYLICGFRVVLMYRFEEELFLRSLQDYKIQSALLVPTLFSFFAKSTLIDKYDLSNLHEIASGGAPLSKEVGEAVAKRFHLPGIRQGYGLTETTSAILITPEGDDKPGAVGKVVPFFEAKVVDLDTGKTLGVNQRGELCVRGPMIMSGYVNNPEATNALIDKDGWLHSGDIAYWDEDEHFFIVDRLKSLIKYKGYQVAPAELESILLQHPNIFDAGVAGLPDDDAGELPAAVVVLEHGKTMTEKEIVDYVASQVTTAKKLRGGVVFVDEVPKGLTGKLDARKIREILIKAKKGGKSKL
Procedure, shortened: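 Purified P. pyralis luciferase, 10 nM final, with Km-level 10 uM D-luciferin and 10 uM ATP in 50 mM Tris acetate pH 7.5, 10 mM Mg acetate, 0.01% Tween-20, 0.05% BSA; 6-point qHTS titration about 60 µM downward; luminescence read.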
Potency is the fitted concentration of half-maximal effect; tags give direction and shape of the fitted curve.

Compound	Potency	activity change, negative = inhibition
O=C1Cn2c(nc3ccccc32)N1c1cccc(C(F)(F)F)c1	inconclusive: 23.9 µM [inhibitor, partial curve]	
CN1CCN(c2ccc(NC(=O)c3ccc(C#N)cc3F)cc2Cl)CC1	inconclusive: 30.1 µM [inhibitor, partial curve, poor fit]	
N/C(Cc1ccccc1)=N\OC(=O)c1cccc2ccccc12	inconclusive: 37.9 µM [inhibitor, single point]	
CC(C)(C)c1ccc(NC(=O)N2CCN(c3ccc([N+](=O)[O-])cn3)CC2)cc1	inconclusive: 13.5 µM [inhibitor, partial curve, poor fit]	
COc1ccccc1NC(=O)c1c(C)nn(-c2ccccc2)c1Cl	inconclusive: 15.1 µM [inhibitor, partial curve]	
COc1ccc(NC(=O)CSc2nc(-c3ccccc3)nc3cc(=O)[nH]n23)cc1	inconclusive: 12 µM [inhibitor, partial curve]	
C/C=C/C=C/C(=O)Nc1cccc(C2=NOC3(C2)C[C@H](C(N)=O)N(C(=O)CC(c2ccccc2)c2ccccc2)C3)c1 (stereo partly drawn)	inconclusive: 23.9 µM [inhibitor, partial curve, poor fit]	
O=C(CSc1ncnc2c1oc1ccccc12)Nc1cccc(Cl)c1	inconclusive: 30.1 µM [inhibitor, partial curve, poor fit]	
Cc1ccc(C)c(OCC(=O)Nc2cccc(C(=O)O)c2)c1C	active: 10.7 µM	
CCOc1ccc(CNc2ccc(N3CCCC3)cc2)cc1	inconclusive: 9.53 µM [inhibitor, partial curve]	
N#CCN=C(c1ccccc1)c1ccccc1		inactive: -4.04%
C/C(=N\NC(=O)c1ccc(Cl)cc1)c1ccc2[nH]ccc2c1	inconclusive: 19 µM [inhibitor, partial curve]	
O=C(Nc1ccc2nc(SCC(=O)N3CCCc4ccccc43)sc2c1)c1ccc(F)cc1	inconclusive: 3.38 µM [inhibitor, partial curve, poor fit]	
COC(=O)c1ccc(N=NN2CCOCC2)cc1	active: 16.9 µM	
Cc1c(C(=O)Nc2ccc(Br)cc2F)sc2ncnc(N(C)C3CCCCC3)c12		inactive: -4.14%
C=CCn1c(SCC(=O)Nc2ccc(N3CCOCC3)cc2)nnc1-c1ccncc1	inconclusive: 23.9 µM [inhibitor, partial curve]	
Cc1cccc(OCC(=O)N/N=C/c2ccccc2C(=O)O)c1	inconclusive: 42.6 µM [inhibitor, partial curve, poor fit]	
Cc1ccc(N(CCC(=O)O)S(=O)(=O)c2cccc(C(F)(F)F)c2)cc1	inconclusive: 23.9 µM [inhibitor, partial curve, poor fit]	
